# Data: the supplement of paper PMC9446081
# Out of some 39,000 compounds screened, about 220 (0.56%) showed activity. This is one part of the list.
# System: Escherichia coli K-12 BW25113
# Test: relative growth (OD600 normalised to plate interquartile mean) (fraction); higher = less growth inhibition, active = 0.2 or less
# Conditions: 50 µM; LB; incubation time: overnight (16-24 h)
# 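Also: static incubation at 37 °C against the wild-type strain, values averaged over two biological replicates.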
row,Structure (SMILES),relative growth
1,O=C(C[C@H]1CC[C@H]2[C@@H](COC[C@H](O)CN2C(=O)Nc2ccc(C(F)(F)F)cc2)O1)NCc1ccncn1,inactive: 0.983
2,COc1ccc(-c2cc(=O)c3c(O)cc(O[C@@H]4O[C@H](CO[C@H]5O[C@H](C)[C@@H](O)[C@H](O)[C@@H]5O)[C@@H](O)[C@H](O)[C@H]4O)cc3o2)cc1O,inactive: 1.03
3,C[C@@H]1CN([C@@H](C)CO)C(=O)c2cc(NC(=O)Nc3ccc(C(F)(F)F)cc3)ccc2O[C@@H]1CN(C)Cc1ccc(C(=O)O)cc1,inactive: 0.973
4,C[C@H]1CN([C@@H](C)CO)C(=O)Cc2cc(NC(=O)Cc3cn(C)c4ccccc34)ccc2O[C@H]1CN(C)S(=O)(=O)c1cn(C)cn1,inactive: 1.01
5,COc1ccc(NC(=O)Nc2ccc3c(c2)CC(=O)N([C@@H](C)CO)C[C@@H](C)[C@H](CN(C)S(C)(=O)=O)O3)cc1,inactive: 1.02
6,Cc1noc(C)c1NC(=O)Nc1ccc2c(c1)C(=O)N([C@H](C)CO)C[C@H](C)[C@@H](CN(C)Cc1ccccc1)OCCCC[C@H](C)O2,inactive: 0.972
7,COc1ccc(CN(C)C[C@@H]2Oc3ccc(NS(=O)(=O)c4cn(C)cn4)cc3C(=O)N([C@@H](C)CO)C[C@H]2C)cc1,inactive: 0.999
8,C[C@@H]1CN([C@@H](C)CO)C(=O)c2cc(N(C)C)ccc2O[C@@H](C)CCCCO[C@@H]1CN(C)S(=O)(=O)c1cn(C)cn1,inactive: 1.03
9,CO[C@H]1CN(C)C(=O)c2cc(NC(=O)CC(F)(F)F)ccc2OC[C@H](C)N(C(=O)C2CCOCC2)C[C@@H]1C,inactive: 1.01
10,O=C(CCCCCNC(=O)OCc1ccc(CO[C@@H]2C[C@H](c3ccc(Br)cc3)C=C(C(=O)N3CCN(Cc4ccc5c(c4)OCO5)CC3)O2)cc1)NO,inactive: 1.02
11,COc1ccc2c3c([nH]c2c1)[C@H](CO)N(CC1CCCCC1)C[C@]13CCN(CC1)C(=O)Nc1cccc(c1)F,inactive: 1.03
12,COc1ccc(S(=O)(=O)N(C)C[C@H]2Oc3ccc(NS(=O)(=O)c4c(C)noc4C)cc3C(=O)N([C@@H](C)CO)C[C@@H]2C)cc1,inactive: 1.01
13,CN1CCN(C(=O)[C@H]2[C@H](CO)[C@H]3Cn4c(ccc(C5=CCCCC5)c4=O)[C@@H]2N3S(C)(=O)=O)CC1,inactive: 0.963
14,COc1ccc(CN(C)C[C@@H]2OCCCC[C@H](C)Oc3ccc(NC(=O)Nc4ccccc4)cc3C(=O)N([C@@H](C)CO)C[C@@H]2C)cc1,inactive: 0.95
15,O=C(C[C@@H]1CC[C@H]2[C@@H](COC[C@@H](O)CN2S(=O)(=O)c2ccccc2F)O1)NCc1ccccc1F,inactive: 0.976
16,C[C@@H]1CN([C@@H](C)CO)S(=O)(=O)c2ccc(C#C[C@@H](C)O)cc2O[C@@H]1CN(C)C(=O)CN(C)C,inactive: 1.02
17,O=C1[C@@H]2[C@@H](C(=O)N1CCO)[C@@H]1C=C[C@@H]2C1,inactive: 0.972
18,C[C@H](CO)N1C[C@H](C)[C@H](CN(C)C(=O)c2cc(Cl)cc(Cl)c2)OCc2ccccc2-c2c(n(C)c3ccccc23)C1=O,inactive: 1.01
19,COc1ccc(CNC(=O)N(C)C[C@H]2OCc3ccccc3-c3c(n(C)c4ccccc34)C(=O)N([C@@H](C)CO)C[C@@H]2C)cc1,inactive: 0.903
20,C[C@H](CO)N1C[C@H](C)[C@@H](CN(C)C(=O)N[C@H](C)c2ccccc2)OCc2ccccc2-c2c(n(C)c3ccccc23)C1=O,inactive: 0.999

row,Structure (SMILES),relative growth
1,COc1ccc(C(=O)Nc2cccc(CN3C(=O)[C@@]4(O[C@@H](CC(=O)N(CCO)Cc5ccccc5)[C@H]([Si](C)(C)c5ccc(OC)cc5)[C@H]4C)c4ccccc43)c2)cc1,inactive: 0.997
2,N[C@@H](Cc1ccc2nonc2c1)C(=O)O,inactive: 1.02
3,c1ccc([C@@H]2Oc3ccccc3[C@@H]3Oc4ccccc4C[C@@H]23)cc1,inactive: 1.05
4,CO[C@H]1CN(C)C(=O)c2ccc(NC(=O)Nc3ccc(Cl)cc3)cc2OC[C@@H](C)N(C(=O)Nc2c(C)noc2C)C[C@H]1C,inactive: 0.988
5,O=C(NCCN1CCOCC1)C(=O)NC[C@H]1COc2ccccc2O1,inactive: 1.01
6,C[C@@H]1CN([C@H](C)CO)S(=O)(=O)c2ccc(C#CCN(C)C)cc2O[C@@H]1CN(C)Cc1cccnc1,inactive: 1
7,COc1ccc(S(=O)(=O)Nc2ccc3c(c2)CC(=O)N([C@@H](C)CO)C[C@@H](C)[C@@H](CN(C)S(=O)(=O)c2ccc(C)cc2)O3)cc1,inactive: 1.02
8,C[C@@H]1CN([C@@H](C)CO)C(=O)Cc2cc(NC(=O)Nc3cccc4ccccc34)ccc2O[C@H]1CN(C)S(=O)(=O)c1ccc(F)cc1,inactive: 1.02
9,CCC(=O)O[C@H]1[C@H](O[C@@H]2[C@@H](C)[C@H](O[C@H]3C[C@@](C)(OC)[C@@H](O)[C@H](C)O3)[C@@H](C)C(=O)O[C@H](CC)[C@@](C)(O)[C@H](O)[C@@H](C)C(=O)[C@H](C)C[C@@]2(C)O)O[C@H](C)C[C@@H]1N(C)C,inactive: 0.947
10,Cc1ccc(S(=O)(=O)Nc2ccc3c(c2)C(=O)N([C@H](C)CO)C[C@H](C)[C@@H](CN(C)Cc2ccncc2)OCCCC[C@H](C)O3)cc1,inactive: 1.02
11,Nc1ncnc2c1ncn2[C@H]1O[C@@H](CO)C[C@@H]1O,inactive: 1.01
12,CC(C)NC(=O)N(C)C[C@H]1Oc2ncc(-c3ccc(C(=O)N(C)C)cc3)cc2C(=O)N([C@@H](C)CO)C[C@H]1C,inactive: 0.964
13,C[C@@H]1CCCCO[C@@H](CN(C)S(=O)(=O)c2ccc(Cl)cc2)[C@H](C)CN([C@H](C)CO)C(=O)c2cc(NC(=O)C3CCCCC3)ccc2O1,inactive: 1.06
14,C[C@H]1CN([C@@H](C)CO)C(=O)c2cc(C#CC3(O)CCCC3)cnc2O[C@@H]1CN(C)S(=O)(=O)c1ccccc1,inactive: 0.961
15,O=C(C[C@@H]1CC[C@@H]2[C@H](COC[C@H](O)CN2C(=O)c2cnccn2)O1)N1CCN(c2ccccc2)CC1,inactive: 0.989
16,O=c1cc(-c2ccccc2)oc2cc(O)ccc12,inactive: 0.945
17,C[C@H](CO)N1C[C@H](C)[C@H](CN(C)S(=O)(=O)c2ccc(Cl)cc2)OCCCC[C@H](C)Oc2ccc(NC(=O)Nc3ccccc3)cc2C1=O,inactive: 0.992
18,C=CCOC1=N[C@@H]2[C@@H](C(=O)N(C)C(=O)N2C)N1C,inactive: 0.907
19,Cc1ccc(S(=O)(=O)N(C)C[C@@H]2Oc3ccc(NS(=O)(=O)c4cccs4)cc3CC(=O)N([C@@H](C)CO)C[C@@H]2C)cc1,inactive: 0.961
20,CS(=O)(=O)N1CCN(c2ccccc2)CC1,inactive: 0.959

row,Structure (SMILES),relative growth
1,CC(=O)Oc1ccccc1C(=O)O,inactive: 1.03
2,CCO[C@H]1OC(C(=O)N2CCN(C)CC2)=C[C@@H](c2ccc3c(c2)OCO3)[C@@H]1CCCOC(=O)NCCCCCC(=O)NO,inactive: 1.02
3,C[C@@H]1CCCCO[C@H](CN(C)C(=O)CCC(F)(F)F)[C@H](C)CN([C@H](C)CO)C(=O)c2cc(NC(=O)c3ccccc3)ccc2O1,inactive: 0.971
4,Cc1noc(C)c1NC(=O)Nc1ccc2c(c1)C(=O)N([C@H](C)CO)C[C@H](C)[C@@H](CN(C)S(=O)(=O)c1ccc(F)cc1)OCCCC[C@@H](C)O2,inactive: 1
5,COc1ccccc1-c1cnc2c(c1)C(=O)N([C@@H](C)CO)C[C@H](C)[C@@H](CN(C)C(=O)c1cccnc1)O2,inactive: 1.01
6,C[C@@H]1CN([C@H](C)CO)C(=O)c2cc(NC(=O)CCC(F)(F)F)ccc2O[C@@H](C)CCCCO[C@H]1CN(C)C(=O)CCC(F)(F)F,inactive: 0.983
7,C[C@@H]1O[C@@H](O[C@H]2C(=O)c3c(O)cc(O)cc3O[C@@H]2c2ccc(O)c(O)c2)[C@H](O)[C@H](O)[C@H]1O,inactive: 0.936
8,COc1ccc(CN(C)C[C@@H]2OCCCC[C@@H](C)Oc3ccc(NC(=O)Nc4ccccc4)cc3C(=O)N([C@@H](C)CO)C[C@H]2C)cc1,inactive: 1
9,C[C@@H]1CCCCO[C@@H](CN(C)S(=O)(=O)c2ccc(F)cc2)[C@@H](C)CN([C@H](C)CO)C(=O)c2cc(NC(=O)C3CCCCC3)ccc2O1,inactive: 1.03
10,C[C@@H]1CN([C@H](C)CO)S(=O)(=O)c2ccc(C#CC3(O)CCCC3)cc2O[C@H]1CN(C)C(=O)c1cccnc1,inactive: 1.02
11,C[C@H](CO)N1C[C@H](C)[C@@H](CN(C)CC2CCCCC2)Oc2ccc(NC(=O)Nc3ccc(F)cc3)cc2C1=O,inactive: 1.01
12,CNC(=O)Nc1ccc(S(N)(=O)=O)cc1,inactive: 1.01
13,C[C@H](CO)N1C[C@H](C)[C@H](CN(C)Cc2ccc(C(=O)Nc3ccccc3N)cc2)Oc2c(NS(=O)(=O)c3ccc(Cl)cc3)cccc2C1=O,inactive: 1
14,CC(C)(C)Oc1ccc(O)cc1,inactive: 0.881
15,Cc1noc(C)c1S(=O)(=O)Nc1ccc2c(c1)CC(=O)N([C@H](C)CO)C[C@@H](C)[C@@H](CN(C)C(=O)NC1CCCCC1)O2,inactive: 0.988
16,C1CNCCN1.CC12CCC3c4ccc(OS(=O)(=O)O)cc4CCC3C1CCC2=O (stereo not given),inactive: 0.965
17,C[C@@]1(N)CCCC[C@@H]1C(=O)O,inactive: 0.937
18,CCN(CC)/[N+]([O-])=N/OCOC(C)=O,inactive: 1
19,O=C(C[C@H]1C[C@H]2c3cc(NC(=O)C4CCOCC4)ccc3O[C@H]2[C@H](CO)O1)NCc1ccc2c(c1)OCO2,inactive: 0.888
20,COc1ccc(S(=O)(=O)Nc2cccc3c2O[C@@H](CN(C)CC2CC2)[C@@H](C)CN([C@@H](C)CO)C3=O)cc1,inactive: 1.01
